Reference: the supplement of paper PMC4967469
Lines with a small IC50 respond at low doses; a fit beyond the top or the lowest dose is shown as a bound at that dose. AUC, from the same fit, is the share of area under the viability curve across the 256-fold dose range; the more sensitive the line, the further below 1. For some of these results: An inferred top dose was derived from the fitted curves, not read from the paper. For some of these results: An entry number marks a drug with two screens in the source, which often give different values.

What was measured:
Assay in all cases: Viability of human cancer cell lines after 72 h of drug (GDSC screen)
RDEA119 = compound: COc1cc(F)c(F)c(Nc2ccc(I)cc2F)c1NS(=O)(=O)C1(C[C@H](O)CO)CC1 [RDEA119]; conditions: top dose 5 µM, top dose inferred
Procedure: (§1)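 Human cancer cell lines in 384-well plates, medium with 10% serum, drug for 72 h over a 256-fold dose range (nine 2-fold or five 4-fold steps up to the top dose). Adherent lines were fixed and stained with the nucleic acid dye Syto60, suspension lines read with resazurin; signal relative to control wells, capped at 0 and 100%. One two-parameter sigmoid per drug and line, fitted in a mixed model over all curves with the slope shared within a line.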

QS11 = compound: OC[C@H](Cc1ccccc1)Nc1nc(Oc2ccc3c(c2)CCC3)nc2c1ncn2Cc1ccc(-c2ccccc2)cc1 [QS11]; conditions: top dose 10.24 µM
Procedure: as §1

AC220 = compound: CC(C)(C)c1cc(NC(=O)Nc2ccc(-c3cn4c(n3)sc3cc(OCCN5CCOCC5)ccc34)cc2)no1 [AC220]; conditions: top dose 1.024 µM; top dose inferred
Procedure: as §1

5-Fluorouracil = compound: O=c1[nH]cc(F)c(=O)[nH]1 [5-Fluorouracil]; conditions: top dose 32 µM; top dose inferred
Procedure: as §1

JNK-9L = compound: Fc1cc(-c2ccnc(Nc3ccc(-n4cnc(N5CCOCC5)n4)cc3)n2)cc(N2CCOCC2)c1 [JNK-9L]; conditions: top dose 5.12 µM; top dose inferred
Procedure: as §1

CUDC-101 = compound: C#Cc1cccc(Nc2ncnc3cc(OC)c(OCCCCCCC(=O)NO)cc23)c1 [CUDC-101]; conditions: top dose 5.12 µM; top dose inferred
Procedure: as §1

OSU-03012 = compound: NCC(=O)Nc1ccc(-n2nc(C(F)(F)F)cc2-c2ccc3c(ccc4ccccc43)c2)cc1 [OSU-03012]; conditions: top dose 16 µM; top dose inferred
Procedure: as §1

| Cell Line | AUC (RDEA119; screen: GDSC drug entry 1014) | IC50 (RDEA119; screen: GDSC drug entry 1014) | AUC (RDEA119; screen: GDSC drug entry 1526) | IC50 (RDEA119; screen: GDSC drug entry 1526) | AUC (QS11) | IC50 (QS11) | AUC (AC220) | IC50 (AC220) | AUC (5-Fluorouracil) | IC50 (5-Fluorouracil) | AUC (JNK-9L) | IC50 (JNK-9L) | AUC (CUDC-101) | IC50 (CUDC-101) | AUC (OSU-03012) | IC50 (OSU-03012) |
| --- | --- | --- | --- | --- | --- | --- | --- | --- | --- | --- | --- | --- | --- | --- | --- | --- |
| EW-7 (Ewing sarcoma, semi-adherent) | 0.979 | > 5 µM | 0.988 | > 5 µM | 0.955 | > 10.2 µM | 0.873 | 0.784 µM | 0.61 | 3.85 µM | 0.587 | 0.537 µM | 0.5 | 0.321 µM | 0.735 | 4.24 µM |
| EW-11 (Ewing sarcoma, adherent) | 0.958 | > 5 µM | 0.958 | > 5 µM | 0.94 | > 10.2 µM | 0.943 | > 1.02 µM | 0.945 | > 32 µM | 0.649 | 0.936 µM | 0.453 | 0.23 µM | 0.805 | 11 µM |
| EW-13 (Ewing sarcoma, suspension) | 0.916 | > 5 µM | 0.978 | > 5 µM | 0.476 | 0.547 µM | 0.969 | > 1.02 µM | 0.641 | 5.15 µM | 0.493 | 0.306 µM | 0.708 | 1.33 µM | 0.63 | 2.38 µM |
| EW-16 (Ewing sarcoma, adherent) | 0.881 | > 5 µM | 0.937 | > 5 µM | 0.833 | 7.04 µM | 0.977 | > 1.02 µM | 0.908 | > 32 µM | 0.546 | 0.43 µM | 0.319 | 0.0974 µM | 0.51 | 1.06 µM |
| EW-18 (Ewing sarcoma, suspension) | 0.966 | > 5 µM | 0.972 | > 5 µM | 0.9 | > 10.2 µM | 0.965 | > 1.02 µM | 0.753 | 11.3 µM | 0.633 | 0.764 µM | 0.26 | 0.0622 µM | 0.657 | 2.82 µM |
| EW-24 (Ewing sarcoma, semi-adherent) | 0.991 | > 5 µM | 0.992 | > 5 µM | 0.983 | > 10.2 µM | 0.993 | > 1.02 µM | 0.973 | > 32 µM | 0.851 | 3.21 µM | 0.559 | 0.454 µM | 0.868 | 11.7 µM |
| FADU (head and neck, adherent) | 0.594 | 0.562 µM |  |  | 0.988 | > 10.2 µM | 0.988 | > 1.02 µM | 0.96 | > 32 µM | 0.619 | 0.673 µM | 0.665 | 0.904 µM | 0.828 | 9.34 µM |
| FTC-133 (thyroid, adherent) | 0.843 | 4.07 µM | 0.917 | > 5 µM | 0.986 | > 10.2 µM | 0.986 | > 1.02 µM | 0.986 | > 32 µM | 0.862 | 5.1 µM | 0.801 | 2.79 µM | 0.907 | > 16 µM |
| FU97 (stomach, adherent) | 0.712 | 1.26 µM | 0.781 | 2.14 µM | 0.923 | > 10.2 µM | 0.965 | > 1.02 µM | 0.974 | > 32 µM | 0.583 | 0.543 µM | 0.655 | 0.871 µM | 0.772 | 6.37 µM |
| FU-OV-1 (ovary, adherent) | 0.875 | > 5 µM | 0.868 | > 5 µM | 0.981 | > 10.2 µM | 0.967 | > 1.02 µM | 0.982 | > 32 µM | 0.655 | 0.989 µM | 0.793 | 3.22 µM | 0.779 | 8.74 µM |
| Farage (B-cell lymphoma, suspension) | 0.93 | > 5 µM | 0.985 | > 5 µM | 0.913 | > 10.2 µM | 0.985 | > 1.02 µM | 0.539 | 2.5 µM | 0.502 | 0.323 µM | 0.355 | 0.138 µM | 0.711 | 3.46 µM |
| G-292 Clone A141B1 (osteosarcoma, adherent) | 0.825 | > 5 µM | 0.862 | > 5 µM | 0.932 | > 10.2 µM | 0.959 | > 1.02 µM | 0.957 | > 32 µM | 0.842 | > 5.12 µM | 0.884 | > 5.12 µM | 0.661 | 3.67 µM |
| G-361 (melanoma, adherent) | 0.358 | 0.129 µM | 0.555 | 0.439 µM | 0.683 | 2.03 µM | 0.952 | > 1.02 µM | 0.838 | 20.4 µM | 0.469 | 0.264 µM | 0.534 | 0.394 µM | 0.765 | 5.64 µM |
| G-401 (kidney, adherent) | 0.776 | 2.2 µM | 0.835 | 3.77 µM | 0.937 | > 10.2 µM | 0.979 | > 1.02 µM | 0.54 | 2.6 µM | 0.477 | 0.276 µM | 0.605 | 0.639 µM | 0.668 | 3.1 µM |
| G-402 (soft tissue, adherent) | 0.881 | > 5 µM | 0.857 | > 5 µM | 0.917 | > 10.2 µM | 0.811 | 0.782 µM | 0.624 | 4.95 µM | 0.471 |  | 0.85 | > 5.12 µM | 0.751 | 6.87 µM |
| G-MEL (melanoma, adherent) |  |  | 0.248 | 0.0595 µM | 0.976 | > 10.2 µM | 0.983 | > 1.02 µM | 0.986 | > 32 µM | 0.386 | 0.156 µM | 0.595 | 0.58 µM | 0.762 | 5.67 µM |
| GAMG (glioma, adherent) | 0.812 | 2.83 µM | 0.911 | > 5 µM | 0.922 | > 10.2 µM | 0.985 | > 1.02 µM | 0.809 | 17.8 µM | 0.659 | 0.909 µM | 0.476 | 0.274 µM | 0.695 | 3.65 µM |
| GB-1 (glioma, adherent) | 0.757 | 2.01 µM | 0.889 | > 5 µM | 0.778 | 4.94 µM | 0.935 | > 1.02 µM | 0.677 | 6.85 µM | 0.473 | 0.266 µM | 0.402 | 0.164 µM | 0.463 | 0.777 µM |
